From the GPR68 mutational scans of Howard et al. (2025)
The least precise scores are not listed. Two further conditions of the source, in which the scores hardly spread, are not listed. In variant names, del marks residues removed and ins residues inserted between the two positions. For some of these results: How much ogerin was present is not stated here.

B1: GPR68, Q15743 (parent)
chain: MGNITADNSSMSCTIDHTIHQTLAPVVYVTVLVVGFPANCLSLYFGYLQIKARNELGVYLCNLTVADLFYICSLPFWLQYVLQHDNWSHGDLSCQVCGILLYENIYISVGFLCCISVDRYLAVAHPFRFHQFRTLKAAVGVSVVIWAKELLTSIYFLMHEEVIEDENQHRVCFEHYPIQAWQRAINYYRFLVGFLFPICLLLASYQGILRAVRRSHGTQKSRKDQIQRLVLSTVVIFLACFLPYHVLLLVRSVWEASCDFAKGVFNAYHFSLLLTSFNCVADPVLYCFVSETTHRDLARLRGACLAFLTCSRTGRAREAYPLGAPEASGKSGAQGEEPELLTKLHPAFQTPNSPGSGGFPTGRLA

Key:
[1] = variants of: B1; assay: cAMP reporter score (Enrich2 score, wild type = 0); higher = more signal; HEK293T, FACS bins
[2] = variants of: B1; assay: surface expression score (Enrich2 score, wild type = 0); higher = more signal; HEK293T, FACS bins

| Variant | cAMP reporter score ([1]; pH 5.5) | cAMP reporter score ([1]; pH 6, modulator: ogerin) | cAMP reporter score ([1]; pH 6.5, modulator: ogerin) | surface expression score [2] | cAMP reporter score ([1]; pH 6) |
| --- | --- | --- | --- | --- | --- |
| V143S | 0.924 | 0.263 | -0.597 | -0.651 |  |
| V143I | 1.12 | 1.52 | 0.787 | 1.13 | 1.12 |
| V143G | 0.485 | 0.265 | -0.2 | -0.759 | -1.62 |
| V143N | -1.46 | -1.68 | -0.838 | -1.98 | -1.08 |
| V143E | -1.11 | -1.56 | -1.2 | -1.37 | -1.19 |
| V143P | -1.76 | -2.26 | -1.67 | -2.82 | -0.566 |
| V143F | -0.018 | -0.133 | -0.571 | -1.04 | -1.63 |
| V143M | -0.405 | -0.495 | -0.515 | -0.453 | -0.15 |
| Q131_R133del | -0.795 | -1.3 | -0.671 | -1.99 | -0.447 |
| R128_F129insGS | -1.26 |  | -1.88 | -3.54 |  |
| P126_F127insG | -1.13 | -1.29 | -1.31 | -2.93 | -0.184 |
| S142M | -0.405 | -0.683 | -1.73 | -1.71 | -0.971 |
| S142H | -1.53 | -0.869 | -1.16 | -3.31 | -0.222 |
| S142K | -0.555 | -1.27 | -0.78 | -3.48 | -0.668 |
| S142I | -1.79 | -1.63 | -0.96 |  | 0.031 |
| S142Q | -0.986 | -1.8 | -0.784 | -2.87 | -0.938 |
| S142C | -0.766 | -0.43 | -1.59 | -1.51 | -1.01 |
| S142Y | -0.823 | -2.32 | -0.993 | -2.48 | -1.58 |
| S142T | -0.233 | -1.2 | -1.2 | -1.67 | -0.687 |
| S142P | -1.41 | -1.6 | -0.984 | -2.53 | -0.73 |
| S142N | -1.15 |  |  | -2.07 |  |
| S142W | -1.66 |  |  | -1.72 |  |

| Variant | cAMP reporter score ([1]; pH 5.5) | cAMP reporter score ([1]; pH 6, modulator: ogerin) | cAMP reporter score ([1]; pH 6.5, modulator: ogerin) | surface expression score [2] | cAMP reporter score ([1]; pH 6) |
| --- | --- | --- | --- | --- | --- |
| S142E | -1.55 | -1.7 | -1.07 | -2.35 | -1.27 |
| S142A | -1.43 | -1.64 | -1.23 | -1.46 | -1.54 |
| S142D | -1.8 | -1.31 | -0.541 | -2.92 | -0.958 |
| S142L | -0.945 | -1.75 | -0.842 | -3.34 | -1.06 |
| S142G | -0.769 | -0.778 | -0.769 | -0.77 | -0.23 |
| S142V | -0.985 | -1.97 | -1.7 | -2.87 | -0.977 |
| S142R | -0.868 | -1.01 | -0.727 | -2.64 | -1.26 |
| S142F | -0.409 | -0.652 | -0.426 |  | -0.058 |
| V141_S142insGS | -0.214 | -0.876 | -0.114 |  | -0.586 |
| V139del | -0.875 | -1.35 | -1.32 | -2.51 | 0.389 |
| L135W | 0.04 | -0.027 | -0.494 |  | -0.72 |
| L135H | 0.89 | 0.065 | -0.06 | -1.67 | -1.31 |
| L135C | 0.249 | 0.176 | -0.095 | -0.556 | -0.568 |
| L135I | 0.197 | -0.167 | 0.505 | -0.397 | 1.29 |
| L135S | -0.713 |  | -0.915 | -1.68 | -1.42 |
| L135R | -1.34 | 0.191 | -1.73 | 0.001 | -1.19 |
| L135N | -0.424 | -0.639 | -0.458 | -0.062 |  |
| L135P | 0.526 |  | 0.049 | -1.22 | -0.066 |
| L135M | 0.803 | 1.54 | 2.36 | 1.06 | 2 |
| L135G | -0.588 | -0.652 | -0.631 | -3.49 | -0.761 |
| L135A | 0.303 | -0.196 | -1.08 |  | 0.053 |
| L135E | -1.14 | -0.978 | -1.18 | -2.5 | 0.893 |

| Variant | cAMP reporter score ([1]; pH 5.5) | cAMP reporter score ([1]; pH 6, modulator: ogerin) | cAMP reporter score ([1]; pH 6.5, modulator: ogerin) | surface expression score [2] | cAMP reporter score ([1]; pH 6) |
| --- | --- | --- | --- | --- | --- |
| L135K | 0.071 | 0.119 | -0.684 | -2.29 | -1.01 |
| L135V | 1.75 | 0.936 | 1.33 | 0.791 | 2.41 |
| L135T | 1.4 | 0.69 | 0.49 | -0.447 | 1.64 |
| L135F | -0.025 | -0.721 | -0.009 | -0.574 | 0.669 |
| S142_V144del | -0.987 | -0.398 | -0.261 | -2.59 | -0.412 |
| A137Y | -1.82 |  | -0.929 | -2.74 | -1.71 |
| A137N | -0.888 | -1.36 | -1.54 | -0.786 | -0.851 |
| A137K | -0.325 | -0.013 | -0.521 | -2.51 |  |
| A137F | 0.744 | -0.794 | -0.442 |  |  |
| A137S | -0.016 | -0.639 |  | -0.392 |  |
| A137I | -0.165 | 0.051 | -0.425 | -0.461 | -0.511 |
| A137H | 0.416 |  | -1.06 |  |  |
| A137V | 0.622 |  | 3.57 | -0.067 | 3.92 |
| A137C | 0.177 | 1.88 | 0.936 | 0.695 | 1.17 |
| A137G | 0.803 | -0.082 | -0.758 | -0.585 | -0.013 |
| A137W | 1.35 | 1.25 | 0.779 | -0.417 | 0.968 |
| A137E | -0.838 | -1.34 | -2.71 |  |  |
| A137T | -1.3 | -0.31 | 1.58 | -0.37 |  |
| A137P | -0.645 | -0.42 | -1.26 | -2.39 | -0.782 |
| A137R | -0.154 | -0.803 | -0.192 |  |  |
| A137D | -1.38 | -1.9 | -1.5 | -1.83 | -0.483 |
| F127del | -0.617 | -1.16 | -0.632 | -0.316 | -1.07 |
